Data reported in PMC4336329 (PLoS ONE, 2015).
Out of some 310,000 compounds screened, about 2,200 (0.71%) showed an effect of 50% or more. Effects have a minus sign here. Some of the results follow.

The compounds below were run against human ether-à-go-go-related gene (hERG) potassium channel (human, UniProt Q12809) (assay: primary screen, population patch clamp on CHO cells stably expressing hERG).
Chain of human ether-à-go-go-related gene (hERG) potassium channel (Q12809 whole entry, looked up): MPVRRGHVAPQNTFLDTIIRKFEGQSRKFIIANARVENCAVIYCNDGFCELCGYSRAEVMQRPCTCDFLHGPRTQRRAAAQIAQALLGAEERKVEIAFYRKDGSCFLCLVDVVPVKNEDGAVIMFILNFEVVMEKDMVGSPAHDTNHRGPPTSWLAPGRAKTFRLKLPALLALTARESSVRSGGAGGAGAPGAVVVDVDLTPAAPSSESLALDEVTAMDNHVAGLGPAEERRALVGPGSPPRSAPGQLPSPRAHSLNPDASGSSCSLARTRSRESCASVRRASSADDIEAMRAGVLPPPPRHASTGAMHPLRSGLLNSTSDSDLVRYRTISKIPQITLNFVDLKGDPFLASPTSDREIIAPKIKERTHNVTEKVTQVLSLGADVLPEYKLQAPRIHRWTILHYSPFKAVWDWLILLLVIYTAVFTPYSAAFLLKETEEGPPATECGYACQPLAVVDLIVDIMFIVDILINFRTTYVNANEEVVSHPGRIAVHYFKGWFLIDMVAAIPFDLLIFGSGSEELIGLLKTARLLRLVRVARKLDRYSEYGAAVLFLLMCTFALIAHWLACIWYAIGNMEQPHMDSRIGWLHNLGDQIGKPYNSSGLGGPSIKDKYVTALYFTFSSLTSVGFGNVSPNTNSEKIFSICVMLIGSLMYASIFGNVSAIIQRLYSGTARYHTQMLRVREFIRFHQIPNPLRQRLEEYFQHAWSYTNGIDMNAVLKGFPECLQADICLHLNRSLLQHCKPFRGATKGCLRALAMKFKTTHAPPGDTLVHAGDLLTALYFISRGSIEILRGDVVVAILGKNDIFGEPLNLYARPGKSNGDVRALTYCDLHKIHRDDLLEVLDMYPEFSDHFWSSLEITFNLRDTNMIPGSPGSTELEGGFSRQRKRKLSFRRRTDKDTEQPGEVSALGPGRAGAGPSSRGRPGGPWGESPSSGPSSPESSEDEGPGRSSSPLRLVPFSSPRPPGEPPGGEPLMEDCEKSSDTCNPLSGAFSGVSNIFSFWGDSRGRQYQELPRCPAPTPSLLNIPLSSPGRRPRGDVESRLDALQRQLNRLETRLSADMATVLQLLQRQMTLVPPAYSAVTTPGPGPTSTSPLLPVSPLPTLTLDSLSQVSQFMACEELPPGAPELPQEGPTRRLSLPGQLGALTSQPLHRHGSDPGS

Structure (SMILES) | hERG current change (%, negative = inhibition) at 1uM
COc1ccc(Cl)cc1N(CC(=O)Nc1ccc2c(c1)OCO2)S(C)(=O)=O | 9.67%
O=C(Cc1cn2ccsc2n1)NCCc1ccc(F)cc1 | 9.08%
Cc1cccc(NC(=S)Nc2ccc(Oc3ccccc3)cc2)n1 | 9.12%
CCCCCOc1ccc(C(=O)Nc2ccc(N3CCOCC3)cc2N2CCOCC2)cc1 | 10.1%
O=C1CCC(/C=C/c2ccccc2)=NN1Cc1ccccc1Cl | 11.3%
CCOc1ccc(NC(=O)CN2CCN(CC(=O)Nc3ccc(F)c(F)c3)CC2)cc1 | -87.9%
COc1cccc(-n2c(SCC(N)=O)nc3ccccc3c2=O)c1 | 0.43%
COc1ccc(C(=O)Nc2ccc(C(=O)N3CCCCC3C)cc2)c(OC)c1OC (stereo not drawn) | -7.93%
CCN(CC)S(=O)(=O)c1ccc(Cl)c(C(=O)Oc2cccnc2)c1 | 3.93%
CC(C)(C)n1nnnc1C(c1cccc(C#N)c1)N1CCCCCC1 (stereo not drawn) | 6.61%
O=C(NC1CCN(c2ncccn2)CC1)c1ccccc1F | 12.8%
COc1ccc(CC(=O)NCc2nc(-c3ccccc3)no2)cc1 | 7.91%
Cc1ccc(-c2nn(CC(=O)O)c(=O)c3ccccc23)cc1 | 0.802%
COc1ccc(CCNC(=O)CSc2n[nH]c(N)n2)cc1 | 7.56%
Cc1[nH]c(=O)[nH]c(=O)c1CSCC(=O)OCC(=O)Nc1ccccn1 | 9.37%
COc1cccc(OCc2cc(C(=O)N3CCN(c4ccccc4OC)CC3)no2)c1 | 15.7%
C/C=C\C=C/C(=O)Nc1cccc(C2=NOC3(C2)C[C@@H](C(N)=O)N(C(=O)COc2ccc(Cl)cc2)C3)c1 (stereo partly drawn) | 5.84%
Cc1ccccc1Nc1nc(N)nc(COC(=O)CCS(=O)(=O)c2ccccc2)n1 | -0.672%
CC(=O)NC(C)c1cc(Cl)c2ccccc2c1O (stereo not drawn) | 6.65%
N#Cc1ccccc1S(=O)(=O)N1CCN(CC(=O)Nc2ccccc2C(=O)NC2CC2)CC1 | -25.4%
COC(C(=O)NC(C(C)C)C(C)C)c1ccccc1 (stereo not drawn) | -2.55%
COC(=O)C1=C(C)N(Cc2ccccc2)C(=NCC(C)C)N[C@H]1c1ccccc1 | -5.41%
Cc1ccc(C)c(NC(=O)CNS(=O)(=O)c2ccccc2)c1 | 9.25%

Structure (SMILES) | hERG current change (%, negative = inhibition) at 1uM
CC1SC(=S)N(c2ccc(N(C)C)cc2)C1=O (stereo not drawn) | 15.5%
CC1=C([N+](=O)[O-])C(c2cccc(Br)c2)C2=C(N1)c1ccccc1C2=O (stereo not drawn) | 9.32%
Cc1cccc2c1CC(C)(C)N=C2C1=C(O)CC(C)(C)CC1=O | 2.54%
COC(=O)c1c(N)sc(C(C)=O)c1C | 3.12%
Cc1cc(NC(=O)CSCC(=O)NCc2cccc(C(F)(F)F)c2)no1 | 4.81%
Fc1cccc(CCN2CCNC[C@@H]2c2ccccc2)c1 | 8.3%
CCOC(=O)C1C(=O)C=C(C)C(C(=O)OCC)C1c1cccc([N+](=O)[O-])c1 (stereo not drawn) | 6.14%
O=C(N/N=C/c1cn(-c2ccccc2)nc1-c1cccnc1)c1ccccc1 | -13.1%
Cn1nc(C(=O)Nc2cc(Cl)ccc2N2CCCC2)c2ccccc2c1=O | 6.96%
CN(C)CCNc1oc(COc2ccc(Cl)cc2Cl)nc1C#N | 15.9%
O=C(Nc1nc2ccccc2[nH]1)C1CC1 | 8.25%
O=C(CCC(=O)N(c1cccc(F)c1)C(C(=O)NC1CCCC1)c1ccncc1)Nc1cccnc1 (stereo not drawn) | 15.1%
COc1ccc(C(C)(C)C)cc1NC(=O)c1cncc(Br)c1 | 7.8%
O=C(NC1CCCCC1)c1cccnc1Sc1ccccc1Cl | 11.4%
COCCNC(=O)CS(=O)Cc1nc(-c2ccc(OC)cc2)oc1C (stereo not drawn) | 16.2%
S=C1NCCOCCOCCOCCOCCNC(=S)N2CCOCCOCCN1CCOCC2 | 3.89%
CCc1noc(C)c1C(=O)Nc1nc(-c2ccc(NC(C)=O)cc2)cs1 | 15.3%
COc1ccccc1NC(=S)NN1CCN(C)CC1 | -3.62%
COC(=O)C1=CN(c2ccc(F)cc2)C=C(C(=O)OC)C1c1cccc(Br)c1 | 15.9%
COc1ccc(CCNC(=O)C(C(=O)c2ccccc2)n2cc(Cl)ccc2=O)cc1OC (stereo not drawn) | 6.77%
O=C(NCCO)c1cccc2c1C(=O)c1ccccc1-2 | 0.608%
N#C/C(=N\Nc1ccc(Cl)cc1)C(=O)c1ccccc1 | 8.15%
CC(C)CNC(=O)c1ccc(Cl)c(NC(=O)COc2ccccc2)c1 | 13.8%

Structure (SMILES) | hERG current change (%, negative = inhibition) at 1uM
CC(C)[C@H]1C=C(C(=O)O)O[C@@H](OCCCCO)C1 | 7.8%
CSCCC(NS(=O)(=O)c1cccc(C(F)(F)F)c1)C(=O)N(C)Cc1ccc2c(c1)OCCO2 (stereo not drawn) | 3.37%
O=C(CN1CCc2ccccc2C1)Nc1ccccc1C(=O)NC1CC1 | 3.95%
O=C(CCNC(=O)c1ccccc1)NCC1CCCCC1 | 6.82%
CC(OC(=O)c1ccc(S(=O)(=O)N2CCOCC2)cc1)c1ccccc1 (stereo not drawn) | -8.54%
Cc1ccccc1NC(=O)NC1(C(=O)N2CCCC2)CCCCC1 | 3.15%
Cc1ccc(S(=O)(=O)CC(N)=O)cc1 | -0.125%
O=C(Cc1ccccc1)NC1CCS(=O)(=O)C1 (stereo not drawn) | 9.39%
CCOC(=O)N1CCN(C(=O)CN(c2cccc(C(F)(F)F)c2)S(=O)(=O)c2ccccc2)CC1 | 2.99%
COC(=O)CCn1nnc(-c2ccc(C)cc2)n1 | 13.6%
Cc1cccc(N=Nc2c(N)n[nH]c2-c2ccc(Cl)cc2)c1 | 7.73%
COc1ccccc1N1CCN(C(=O)c2cc(C(C)(C)C)oc2C)CC1 | 14.3%
O=C(O)c1cccc(Cn2cc(Br)cn2)c1 | 5.26%
O=[N+]([O-])c1ccc(C2Oc3ccccc3C3CC(c4ccccc4)=NN32)s1 (stereo not drawn) | -0.0184%
CCOc1ccccc1CN1CCCC(C(=O)Nc2cccc(-n3cccn3)c2)C1 (stereo not drawn) | -23.6%
Cc1ccc(O)c(NC(=S)NC(=O)Cc2ccc(Cl)cc2)c1 | 15.8%
COc1cc(C(=O)Oc2ccccc2N)cc(OC)c1OC | 6.9%
COc1cc(NC(=O)c2ccc(CNc3c(N4CCCC4)c(=O)c3=O)cc2)cc(OC)c1OC | 5.58%
CCN(CC(=O)Nc1ccc(NC(C)=O)cc1)C(=O)c1ccc(N2CCC(C)CC2)c([N+](=O)[O-])c1 | -3.07%
COC(=O)c1nn(-c2ccc(-c3ccccc3)cc2)cc1O | 10.8%
CC1(C)CC(=O)C=C(Nc2ccc(OCC(F)(F)C(F)F)cc2)C1 | -28.1%
Cc1cccc2cc(CN(Cc3ccco3)C(=O)c3cccs3)c(=O)[nH]c12 | 3.9%
CCOC(=O)c1sc(NS(=O)(=O)c2ccccc2)nc1C | 11.2%

Structure (SMILES) | hERG current change (%, negative = inhibition) at 1uM
CN1CCC(N(C)S(=O)(=O)c2ccc(NC(=O)COc3ccc(Br)cc3Cl)cc2)CC1 | 10.9%
COc1ccccc1NS(=O)(=O)c1cccc(C(=O)OCC(=O)Nc2cc(C)on2)c1 | -10.8%
CC(=O)N1CCN(c2ccc(Nc3ncnc4c3oc3ccccc34)cc2)CC1.Cl | -11.4%
Cn1c(O)c(C2=NN(C(=O)CCl)C(c3ccccc3)C2)c(=O)n(C)c1=O (stereo not drawn) | 10.4%
Oc1ccccc1-c1cc(-c2ccc(F)cc2)n[nH]1 | 12%
COc1cc(O)c2c(c1)OC(C)(C)CC2=O | 12.3%
O=C(O)CSCC(=O)N1CCN(S(=O)(=O)c2ccccc2)CC1 | 16.2%
CN1CCCC(OC(=O)/C(C#N)=C/c2ccccc2)C1.Cl (stereo not drawn) | 11.5%
C=CCNc1nc(N)c([N+](=O)[O-])c(NCCO)n1 | 8.73%
Cc1ccc(S(=O)(=O)NC2=NCN(CCN3CCOCC3)CN2)cc1 | 8.91%
CCN(CC)C(=O)Cn1cc(S(=O)(=O)CC(=O)NCc2ccc(F)cc2)c2ccccc21 | 8.35%
O=c1cc(-c2ccccc2)[nH]c2nc3ccccc3n12 | 12%
CCN(CC(=O)Nc1ccc(N2CCOCC2)cc1)C(=O)c1ccc(C#N)cc1 | 4.8%
O=C(CCN1CCc2ccccc2C1)Nc1ccc(F)cc1 | -9.01%
COc1cc(-c2csc(NC3CCCCC3)n2)cc(OC)c1OC | 10.4%
COc1ccc(NS(=O)(=O)c2cccc(NC(=O)CCS(=O)(=O)c3ccccc3)c2)cc1 | 5.33%
Cc1nnc(SCC(=O)Nc2cc(C(F)(F)F)ccc2N2CCOCC2)o1 | 8.14%
Cc1cccc(N=Nc2c(C)[nH]n(-c3ccccc3)c2=O)c1 | 15.5%
COCCn1nnnc1C(c1cc2ccc(OC)cc2[nH]c1=O)N1CCc2ccccc2C1 (stereo not drawn) | -0.0705%
Cc1cccc(NC(=S)NC(=O)/C=C/c2ccco2)n1 | 10.5%
CCN(C(=O)COC(=O)c1nc2nc(C)cc(C)n2n1)C1CCCCC1 | 12.6%
